For orientation: CC50 means the concentration giving 50% cytotoxicity.

The conditions of the data set: Table 5; cell line and method not stated.
With `CC(C)CCCCCCCCCCCOCCCOP(=O)(O)CO[C@H](CO)Cn1ccc(N)nc1=O` [Compound 12M-TrDP-CDV, 12-methyl-tridecyloxypropyl cidofovir], the midpoint of cytotoxicity, the CC50, lay at 82 µM.

`CCCCCCCCCCCCCCCCOCCOP(=O)(O)COC(CO)Cn1cnc2c(N)ncnc21` (stereo not shown) [HDE-HPMPA, reference compound] gave a CC50 of 2.5 µM.

In the case of `CC(C)CCCCCCCCCCCCOCCCOP(=O)(O)CO[C@H](CO)Cn1ccc(N)nc1=O` [Compound 13M-TDP-CDV, 13-methyl-tetradecyloxypropyl cidofovir], the CC50 was found to be 82 µM.

Consider `CC(C)CCCCCCCCCCCCCCOCCCOP(=O)(O)CO[C@H](CO)Cn1ccc(N)nc1=O` [Compound 15M-HDP-CDV, 15-methyl-hexadecyloxypropyl cidofovir], for which the midpoint of cytotoxicity, the CC50, lay at 18 µM.

As to `CC(C)CCCCCCCCCCCCCCOCCOP(=O)(O)CO[C@H](CO)Cn1cnc2c(N)ncnc21` [15M-HDE-HPMPA, 3-(15-methylhexadceyloxy)ethyl (S)-HPMPA], the CC50 is 43 µM.

Take “17-methyl-octadecyloxyethyl cidofovir [Compound 17M-ODE-CDV]”: the midpoint of cytotoxicity, the CC50, lay at 7.5 µM.

As to “14-methyl-pentadecyloxypropyl cidofovir [Compound 14M-PDP-CDV]”, it took 38 µM to reach half-maximal cytotoxicity (CC50).

(Values after patent US7749983B2, “Metabolically stable alkoxyalkyl esters of antiviral or antiproliferative phosphonates, nucleoside phosphonates and nucleoside phosphates” (priority 2006, dated 2010).)
